Laboratory results published in paper PMC4336329 (PLoS ONE, 2015).
Hit rate of the full screen: of about 310,000 compounds, about 14,000 (4.5%) showed an effect of 50% or more. The effect is printed as a negative number. Some of the results follow.

Molecular target: human ether-à-go-go-related gene (hERG) potassium channel (human, UniProt Q12809)
Test: primary screen, population patch clamp on CHO cells stably expressing hERG
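Further: peak tail current of the secondary pulse compared with the same well before compound.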

human ether-à-go-go-related gene (hERG) potassium channel, sequence (Q12809 whole entry, looked up): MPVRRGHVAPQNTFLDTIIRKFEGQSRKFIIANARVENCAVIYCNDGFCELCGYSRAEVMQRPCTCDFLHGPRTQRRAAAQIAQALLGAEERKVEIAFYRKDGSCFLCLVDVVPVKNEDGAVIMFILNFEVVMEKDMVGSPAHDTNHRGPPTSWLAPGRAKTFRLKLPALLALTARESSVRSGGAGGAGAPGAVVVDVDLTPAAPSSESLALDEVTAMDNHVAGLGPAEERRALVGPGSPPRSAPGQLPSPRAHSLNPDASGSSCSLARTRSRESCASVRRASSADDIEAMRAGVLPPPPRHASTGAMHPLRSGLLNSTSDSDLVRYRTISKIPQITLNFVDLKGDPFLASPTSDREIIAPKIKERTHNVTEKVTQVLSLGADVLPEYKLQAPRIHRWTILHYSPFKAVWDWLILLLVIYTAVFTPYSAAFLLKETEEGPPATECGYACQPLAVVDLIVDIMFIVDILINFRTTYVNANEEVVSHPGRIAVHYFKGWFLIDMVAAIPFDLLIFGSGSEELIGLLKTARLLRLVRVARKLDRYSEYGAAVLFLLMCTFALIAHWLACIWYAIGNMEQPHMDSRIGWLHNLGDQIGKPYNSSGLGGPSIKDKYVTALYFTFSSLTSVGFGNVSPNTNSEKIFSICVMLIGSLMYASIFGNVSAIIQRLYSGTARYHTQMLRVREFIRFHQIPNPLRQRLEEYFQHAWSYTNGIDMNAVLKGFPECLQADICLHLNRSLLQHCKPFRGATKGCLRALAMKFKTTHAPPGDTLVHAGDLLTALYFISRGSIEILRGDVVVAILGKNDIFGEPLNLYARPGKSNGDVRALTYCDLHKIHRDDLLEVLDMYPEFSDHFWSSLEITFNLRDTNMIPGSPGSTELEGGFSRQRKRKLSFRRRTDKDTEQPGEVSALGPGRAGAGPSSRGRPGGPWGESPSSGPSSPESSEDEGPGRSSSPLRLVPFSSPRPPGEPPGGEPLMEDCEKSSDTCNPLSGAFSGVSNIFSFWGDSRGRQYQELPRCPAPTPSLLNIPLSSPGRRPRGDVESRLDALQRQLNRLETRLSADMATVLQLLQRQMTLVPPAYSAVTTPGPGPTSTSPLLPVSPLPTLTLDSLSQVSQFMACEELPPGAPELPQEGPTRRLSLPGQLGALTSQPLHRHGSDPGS

Row | Structure (SMILES) | hERG current change (%, negative = inhibition) at 10uM [%]
1 | CCOC(=O)c1cc(C#N)c(N2CCN(c3ccccn3)CC2)nc1-c1ccccc1 | -14.4
2 | C[C@H](NCc1c[nH]c2ccccc12)c1ccccc1 | 0.641
3 | COc1ccc(C(=O)CSc2nccn2C)cc1 | 25.4
4 | Cc1cc(C)c2nc(C(F)(F)F)nc(NCCCN3CCCC3=O)c2c1 | 11.1
5 | CN(C)c1ccc(NC(=O)CSc2nc(C3CC3)nc3ccccc23)cc1 | 5.65
6 | C=CCc1c(C)[nH]c2ccc(C)cc2c1=O | 25.1
7 | CCOc1ccc(C2=CC(c3ccccc3)n3ncnc3N2)cc1 (stereo not shown) | -19.7
8 | CCC(CC)C(=O)N1CCCC(c2nc(-c3cccs3)no2)C1 (stereo not shown) | 4.03
9 | O=C(O)/C=C/c1ccc(S(=O)(=O)NCc2cccnc2)cc1 | 6.16
10 | C/C(=N\NC(=S)Nc1cccc(C)c1)c1cc2ccccc2o1 | 7.96
11 | COC(=O)c1cccc(N(CC(=O)NC2CCCC2)C(=O)CCC(=O)Nc2cc(C)on2)c1 | 17
12 | COc1ccc(S(=O)(=O)NC(N)=NCCc2ccc(OC)c(OC)c2)cc1C | 4.3
13 | CC1CC1C(=O)N(C)CC(=O)Nc1ccc(Cl)c(C(F)(F)F)c1 (stereo not shown) | -5.04
14 | O=S(=O)(/N=C(\c1ccccc1)N1CCOCC1)c1ccc(Cl)cc1 | -5.09
15 | O=C(CSc1ncn[nH]1)NCCOc1ccccc1 | 18.1
16 | CCOc1ccc(NC(=O)CNC(=O)c2ccc(OC)c(OC)c2)cc1 | 0.00778
17 | COc1ccc(CCNC(=O)c2[nH]c(C)c(C(C)=O)c2C)cc1 | -8.42
18 | Clc1ccc(CSc2nnc(CN3CCOCC3)n2-c2ccccc2)cc1Cl | -74.1
19 | O=C(N/N=C/c1ccccc1O)NC12CC3CC(CC(C3)C1)C2 | 3.92
20 | CC(C)(C)c1csc(NC(=O)c2cccnc2Cl)n1 | -36.2
21 | O=C(C1CCCC1)N1CCC(CO)(Cc2ccccc2Cl)CC1 | -44.3
22 | O=C(Oc1ccc(/C=N/Nc2nc(N3CCCCC3)nc(N3CCCCC3)n2)cc1)c1ccco1 | -9.1

Row | Structure (SMILES) | hERG current change (%, negative = inhibition) at 10uM [%]
23 | CCC(=NC)C1=C(O)CC(c2ccccc2)CC1=O (stereo not shown) | 23.8
24 | Cc1ccc(C(=O)N/N=C\C=C\c2ccc(Br)cc2)cn1 | -44.3
25 | O=C(O)C1OC(Oc2cc3oc(-c4ccccc4)cc(=O)c3c(O)c2O)C(O)C(O)C1O (stereo not shown) | 14.3
26 | CC(C)c1ccc(NC(=O)NC2CC3CCC(C2)N3Cc2cccs2)cc1 (stereo not shown) | -11.3
27 | Nc1cc(N)nc(SCc2cccc(F)c2)n1 | 8.68
28 | CSc1ccc(/C=C(\NC(=O)c2ccc(C)cc2)C(=O)NN)cc1 | -10.9
29 | CC(C)C(NC(=O)c1ccccc1)C(=O)NCCc1ccccc1 (stereo not shown) | 9.77
30 | Nc1ccnn1-c1ccccc1 | 16.2
31 | COc1ccccc1/C=C/C(=O)OCC(=O)c1cc(C)n(C)c1C | -0.348
32 | COCc1cc(CN2CCN(Cc3ccsc3)C(CCO)C2)ccc1OC (stereo not shown) | -82.9
33 | Cc1ccc(-c2[nH]nc3c2C(c2ccccc2OC(=O)N2CCOCC2)C(C#N)=C(N)O3)cc1 (stereo not shown) | -6.33
34 | CSCCC(NC(=O)c1cccc(C)c1)C(=O)OCC(=O)Nc1c(C)nn(-c2ccccc2)c1C (stereo not shown) | -15.5
35 | CCOC(=O)c1ccc(NC(=O)c2nc[nH]c2C(=O)N2CCN(c3ccccc3)CC2)cc1 | 3.29
36 | COc1ccc(S(=O)(=O)NCc2cccnc2)cc1OC | 17.1
37 | NS(=O)(=O)c1ccc(CCNC(=O)c2ccccc2F)cc1 | -2.22
38 | O=[N+]([O-])c1ccc(-c2nc(Nc3cccc(O)c3)c3ccccc3n2)cc1 | 18.1
39 | c1ccc2[nH]c(CN3CCN(c4ncnc5c4oc4ccccc45)CC3)nc2c1 | -73.1
40 | C=CCn1c(SCc2c(C(=O)OC)sc(N)c2C(=O)OC)nnc1-c1ccc(Cl)cc1 | -58.1
41 | Cl.O=c1cc[nH]c2c1ccc1c(=O)cc[nH]c12 | 30.8
42 | CN(CC(=O)Nc1ccccc1Br)C(=O)c1cc2c(s1)CCCCC2 | -1.74
43 | Cc1cc(O)c2c(C)c(CC(=O)N3CCN(C(=O)C4COc5ccccc5O4)CC3)c(=O)oc2c1 (stereo not shown) | -28
